According to the supplement of paper PMC8728848:
The other results are listed elsewhere or left out.

How the values were obtained:
Assay in all cases: glycan array binding signal (z-score within array); higher = stronger binding
Conditions in all cases: glycan notation: IUPAC condensed, linker removed
[1] = biological target: Fuc(a1-2)[Gal(a1-3)]Gal(b1-4)GlcNAc(b1-2)Man(a1-3)[Fuc(a1-2)[Gal(a1-3)]Gal(b1-4)GlcNAc(b1-2)Man(a1-6)]Man(b1-4)GlcNAc(b1-4)GlcNAc
How it was run: (§1)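 Glycan array data came from 3228 arrays in the Consortium for Functional Glycomics database, and only arrays with an available protein sequence were kept. Glycan names were put into IUPAC-condensed notation, and columns mapping to the same glycan were averaged. The binding signal is a within-array Z-score, averaged across arrays of one protein sequence run at different concentrations or buffers and across linkers. A negative Z-score can be read as non-binding.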

[2] = biological target: Fuc(a1-2)[Gal(a1-3)]Gal(b1-4)[Fuc(a1-3)]GlcNAc
How it was run: as §1

[3] = biological target: Fuc(a1-2)[Gal(a1-4)]Gal(b1-4)GlcNAc
How it was run: as §1

[4] = biological target: Fuc(a1-2)[GalNAc(a1-3)]Gal
How it was run: as §1

[5] = biological target: Fuc(a1-2)[GalNAc(a1-3)]Gal(b1-3)GlcNAc
How it was run: as §1

[6] = biological target: Fuc(a1-2)[GalNAc(a1-3)]Gal(b1-3)GlcNAc(b1-2)Man(a1-3)[Fuc(a1-2)[GalNAc(a1-3)]Gal(b1-3)GlcNAc(b1-2)Man(a1-6)]Man(b1-4)GlcNAc(b1-4)GlcNAc
How it was run: as §1

[7] = biological target: Fuc(a1-2)[GalNAc(a1-3)]Gal(b1-4)Glc
How it was run: as §1

[8] = biological target: Fuc(a1-2)[GalNAc(a1-3)]Gal(b1-4)GlcNAc
How it was run: as §1

[9] = biological target: Fuc(a1-2)[GalNAc(a1-3)]Gal(b1-4)GlcNAc(b1-2)Man(a1-3)[GalNAc(a1-3)[Fuc(a1-2)]Gal(b1-4)GlcNAc(b1-2)Man(a1-6)]Man(b1-4)GlcNAc(b1-4)GlcNAc
How it was run: as §1

[10] = biological target: Fuc(a1-2)[GalNAc(a1-3)]Gal(b1-4)GlcNAc(b1-3)Gal(b1-4)GlcNAc
How it was run: as §1

[11] = biological target: Fuc(a1-2)[GalNAc(a1-3)]Gal(b1-4)GlcNAc(b1-3)Gal(b1-4)GlcNAc(b1-3)Gal(b1-4)GlcNAc
How it was run: as §1

[12] = biological target: Fuc(a1-2)[GalNAc(a1-3)]Gal(b1-4)[Fuc(a1-3)]GlcNAc
How it was run: as §1

[13] = biological target: Fuc(a1-2)[GalNAc(a1-4)]Gal(b1-4)GlcNAc
How it was run: as §1

[14] = biological target: Fuc(a1-2)[GalNAc(b1-3)]Gal
How it was run: as §1

Fuc(a1-3)GlcNAc = biological target: Fuc(a1-3)GlcNAc
How it was run: as §1

[15] = biological target: Fuc(a1-3)[Gal(b1-4)]Glc6S
How it was run: as §1

[16] = biological target: Fuc(a1-3)[Gal(b1-4)]GlcNAc
How it was run: as §1

[17] = biological target: Fuc(a1-3)[Gal(b1-4)]GlcNAc(b1-2)Man(a1-3)[Fuc(a1-3)[Gal(b1-4)]GlcNAc(b1-2)Man(a1-6)]Man(b1-4)GlcNAc(b1-4)GlcNAc
How it was run: as §1

[18] = biological target: Fuc(a1-3)[Gal(b1-4)]GlcNAc(b1-2)Man(a1-6)[Gal(b1-4)GlcNAc(b1-2)Man(a1-3)]Man(b1-4)GlcNAc(b1-4)GlcNAc
How it was run: as §1

[19] = biological target: Fuc(a1-3)[Gal(b1-4)]GlcNAc(b1-3)Gal(b1-3)[Fuc(a1-4)]GlcNAc
How it was run: as §1

[20] = biological target: Fuc(a1-3)[Gal(b1-4)]GlcNAc(b1-4)Gal(b1-4)[Fuc(a1-3)]GlcNAc
How it was run: as §1

[21] = biological target: Fuc(a1-3)[Gal(b1-4)]GlcNAc(b1-4)Gal(b1-4)[Fuc(a1-3)]GlcNAc(b1-4)Gal(b1-4)[Fuc(a1-3)]GlcNAc
How it was run: as §1

[22] = biological target: Fuc(a1-3)[Gal(b1-4)]GlcNAc6S
How it was run: as §1

[23] = biological target: Fuc(a1-3)[Gal3S(b1-4)]Glc6S
How it was run: as §1

[24] = biological target: Fuc(a1-3)[Gal3S(b1-4)]GlcNAc
How it was run: as §1

[25] = biological target: Fuc(a1-3)[Gal3S(b1-4)]GlcNAc6S
How it was run: as §1

[26] = biological target: Fuc(a1-3)[GalNAc(b1-4)]GlcNAc
How it was run: as §1

[27] = biological target: Fuc(a1-3)[Neu5Ac(a2-3)]Gal(b1-4)GlcNAc(b1-3)GalNAc
How it was run: as §1

Fuc(a1-4)GlcNAc = biological target: Fuc(a1-4)GlcNAc
How it was run: as §1

Fuc(b1-3)GlcNAc = biological target: Fuc(b1-3)GlcNAc
How it was run: as §1

Gal(a1-2)Gal = biological target: Gal(a1-2)Gal
How it was run: as §1

Gal(a1-3)Gal = biological target: Gal(a1-3)Gal
How it was run: as §1

Gal(a1-3)Gal(b1-3)GlcNAc = biological target: Gal(a1-3)Gal(b1-3)GlcNAc
How it was run: as §1

Gal(a1-3)Gal(b1-4)Glc = biological target: Gal(a1-3)Gal(b1-4)Glc
How it was run: as §1

Gal(a1-3)Gal(b1-4)GlcNAc = biological target: Gal(a1-3)Gal(b1-4)GlcNAc
How it was run: as §1

[28] = biological target: Gal(a1-3)Gal(b1-4)[Fuc(a1-3)]GlcNAc
How it was run: as §1

[29] = biological target: Gal(a1-3)Gal(b1-4)[Fuc(a1-3)]GlcNAc(b1-2)Man(a1-3)[Gal(a1-3)Gal(b1-4)[Fuc(a1-3)]GlcNAc(b1-2)Man(a1-6)]Man(b1-4)GlcNAc(b1-4)GlcNAc
How it was run: as §1

B1: HHL-1 (Homo sapiens), P07306 (protein)
chain: TKEYQDLQHLDNEESDHHQLRKGPPPPQPLLQRLCSGPRLLLLSLGLSLLLLVVVCVIGSQNSQLQEELRGLRETFSNFTASTEAQVKGLSTQGGNVGRKMKSLESQLEKQQKDLSEDHSSLLLHVKQFVSDLRSLSCQMAALQGNGSERTCCPVNWVEHERSCYWFSRSGKAWADADNYCRLEDAHLVVVTSWEEQKFVQHHIGPVNTWMGLHDQNGPWKWVDGTDYETGFKNWRPEQPDDWYGHGLGGGEDCAHFTDDGRWNDDVCQRPYRWVCETELDKASQEPPLL
- glycan array binding signal (z-score) [1]: -0.52
- glycan array binding signal (z-score) [2]: -0.242
- glycan array binding signal (z-score) [3]: -0.48
- glycan array binding signal (z-score) [4]: -0.312
- glycan array binding signal (z-score) [5]: -0.025
- glycan array binding signal (z-score) [6]: -0.479
- glycan array binding signal (z-score) [7]: -0.506
- glycan array binding signal (z-score) [8]: -0.34
- glycan array binding signal (z-score) [9]: -0.353
- glycan array binding signal (z-score) [10]: -0.072
- glycan array binding signal (z-score) [11]: -0.3
- glycan array binding signal (z-score) [12]: -0.532
- glycan array binding signal (z-score) [13]: 7.69
- glycan array binding signal (z-score) [14]: 3.59
- glycan array binding signal (z-score) (Fuc(a1-3)GlcNAc): -0.527
- glycan array binding signal (z-score) [15]: -0.368
- glycan array binding signal (z-score) [16]: -0.095
- glycan array binding signal (z-score) [17]: 0.065
- glycan array binding signal (z-score) [18]: -0.567
- glycan array binding signal (z-score) [19]: -0.467
- glycan array binding signal (z-score) [20]: -0.542
- glycan array binding signal (z-score) [21]: 0.458
- glycan array binding signal (z-score) [22]: -0.264
- glycan array binding signal (z-score) [23]: 1.17
- glycan array binding signal (z-score) [24]: -0.088
- glycan array binding signal (z-score) [25]: -0.386
- glycan array binding signal (z-score) [26]: -0.561
- glycan array binding signal (z-score) [27]: 0.526
- glycan array binding signal (z-score) (Fuc(a1-4)GlcNAc): -0.148
- glycan array binding signal (z-score) (Fuc(b1-3)GlcNAc): -0.537
- glycan array binding signal (z-score) (Gal(a1-2)Gal): 0.419
- glycan array binding signal (z-score) (Gal(a1-3)Gal): -0.484
- glycan array binding signal (z-score) (Gal(a1-3)Gal(b1-3)GlcNAc): -0.405
- glycan array binding signal (z-score) (Gal(a1-3)Gal(b1-4)Glc): -0.17
- glycan array binding signal (z-score) (Gal(a1-3)Gal(b1-4)GlcNAc): 0.407
- glycan array binding signal (z-score) [28]: 0.42
- glycan array binding signal (z-score) [29]: -0.369
